# Measurements from the supplement of paper PMC11417369.
# The other results are listed elsewhere or left out.
# System: PfAP2-HC AP2 domain (GST-tagged)
# Assay: gcPBM binding intensity (ln(normalized median fluorescence intensity)); higher = stronger DNA binding
# How it was run: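 An Agilent 4 × 180k array carrying primer-extended double-stranded 36-bp intergenic genomic probes and negative controls received GST-tagged P. falciparum DNA-binding domains expressed in E. coli, about 25 μg on average, for 1 h. The binding buffer contained 1× PBS, 1% milk, 0.2 mg/ml BSA, 0.5% salmon testes DNA and 0.03% Triton X-100. Binding intensity is the top Masliner-normalised natural-log median intensity across replicate spots of either probe orientation, read after Alexa488 anti-GST antibody staining and a 488 nm scan.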
row,Sequence,gcPBM binding intensity (ln)
1,AAAATAATTATGAATTGTACAGGTTTTTTTTTTTTT [XGTACX_site220],9.63
2,AAAAAATTTTTAAGCACACACATAGATAATATATAT [CACACA_site1555],10.1
3,GGAAAAAAAAAAAAAAAACACACGGTACATTCAAAC [CACACA_site2715],9.75
4,TCTACAATTATAATTACACACTATAAAAAAGAAAGA [CACACA_site2984],9.66
5,AAAAATAGGAACCAATATCCAACGTGACTTTATAAT [CACACA_negctrl_site1011],9.77
6,ATTTTTTTTTTTTTTTTTTTTTTTTTTTGATTTGTG [CACACA_negctrl_site1391],9.13
7,TGAAAAAATATAAAATATAAAATAAAAAATATAAAA [GTGCAC_negctrl_site536],9.71
8,AATAAATAAATATATACACACATATATATATAATAT [CACACA_site921],9.88
9,TACAATCTAAAATACACACACACAAACATATATTTA [CACACA_site3702],10.7
10,ATATTAATATATATGTTTTATTACCATTTTATGTAT [CACACA_negctrl_site1761],9.77
11,AAGATATATATAGAAAGTACTTATATTTGTATAATT [XGTACX_site8855],9.89
12,ATGGTTTAGTTATATACACACTCGAAAATAACGACA [CACACA_site7520],9.65
13,TATAAAAATATATTTACACACTATATATATCGAAAG [CACACA_site1700],9.69
14,ATATATTTTCAAAAAAGTAAATCAAAATAAATATAT [TGCATGCA_negctrl_site319],9.22
15,TCCAAATACAACTACACACAAACAAAAATTATATAT [CACACA_site881],10
16,AAAATTTTTCTTAAAGCATGCACAATTAAGAAGACG [TGCATGCA_site883],9.55
17,TTTTTTTTAAGAGATAGTACATAAATATTATAATAT [XGTACX_site4685],9.33
18,AAATAAAATTTTATGTGTACGCAAAAAGTTGTAAGC [XGTACX_site8911],9.84
19,TTAAAATTAATTCACCAGTATTAAAATAAAAACGAA [CACACA_negctrl_site1428],9.6
20,CATATATATATATATACACACATATATATTTTCTTT [CACACA_site1457],10.1
21,AAAAAAAAAAATATCACACACACATAAATATAAACA [CACACA_site7138],10.5
22,AAAGTAGGCTTATATGCACACTTTGAAATATTATAA [CACACA_site5117],9.78

row,Sequence,gcPBM binding intensity (ln)
1,ATTATACAAAATGGTAAGGAAAAGGAAATTTTTTTT [CACACA_negctrl_site1090],9.59
2,CAATATTATATATATACACACATAATCTGTAAAAAC [CACACA_site1068],9.83
3,TTATTTTATTTTAAAAAAAACAATATAAATTCAAAG [GTGCAC_negctrl_site57],9.09
4,ATAAAAATTGATTATACACACGCGCACCCACAACAA [CACACA_site3536],10.3
5,TATTTATAAATTTACACACACACATGGGAACATAAA [CACACA_site5111],10.2
6,ATGTCAAATTTTTGTGCACACATATATAGTTATTAT [CACACA_site2242],10.1
7,TATATATATCAGCAATGTACACAATGCATATTATAT [XGTACX_site4836],9.59
8,TAAGGATAAATAAAATGAAATGAAATAAATAAATGA [XGTACX_negctrl_site539],9.67
9,TATTGTATTTAATAAACACACAATATTAAAAATATA [CACACA_site4725],9.5
10,CATATATACACATACACACACACACGGACACGCACA [CACACA_site6910],10.5
11,ATACACATATATGTGTGTACTCACCTTTTAATATGA [XGTACX_site4349],9.89
12,ATCTATATCTATAATACACACTAAAGTAACAGAATA [CACACA_site7370],9.69
13,GTATCTCATTATTCGTGTACTAAACACATAAAAATA [XGTACX_site2262],9.58
14,GATTTACAACACGAACGTACAGAACAAAAAGGAAAA [XGTACX_site6501],9.71
15,TGTTTAAAGGAAAAGGAGTAGTCTATTATATTATCT [CACACA_negctrl_site858],9.58
16,AATGTAAAAGTAAACACACACATATATATATACATA [CACACA_site2484],10.2
17,TATAAAAATAAAAAAAGTACACATAAAAATATATAT [XGTACX_site5189],9.78
18,AACATTTATAAATATTGTACATATAGATTTATATAT [XGTACX_site2662],9.68
19,AAAATAAAATAACGTTGTACAACATCATTTCTATAT [XGTACX_site5080],9.65
20,AACAATATATTGAATAGTACATATATATAAACATAT [XGTACX_site2811],9.83
21,TTTAATTTGTTATACACACACAAAAAAAGTTATAAA [CACACA_site7779],9.84
